Source: patent US6348573

Biological target: recombinant FADD (purified, detected with anti-(His)6 antibody) (UniProt Q13158)

Q: Which “in vitro kinase assay: phosphorylation of recombinant FADD by RICK immunoprecipitates with [gamma-32P]ATP” value does the source give for “Flag-tagged RICK (RIP-like interacting CLARP kinase), pcDNA3-Flag-RICK (letters omitted)” here?
A: Its value is “RICK induced phosphorylation of FADD”.
